# Assay results: PMC4336329 (PLoS ONE, 2015)
# Hit rate of the full screen: of about 310,000 compounds, about 14,000 (4.5%) showed an effect of 50% or more. Effects have a minus sign here. Some of the results follow.
# Target: human ether-à-go-go-related gene (hERG) potassium channel (human, UniProt Q12809)
# Experiment: primary screen, population patch clamp on CHO cells stably expressing hERG
# 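Note: peak tail current of the secondary pulse compared with the same well before compound.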
# Chain of human ether-à-go-go-related gene (hERG) potassium channel (Q12809 whole entry, looked up): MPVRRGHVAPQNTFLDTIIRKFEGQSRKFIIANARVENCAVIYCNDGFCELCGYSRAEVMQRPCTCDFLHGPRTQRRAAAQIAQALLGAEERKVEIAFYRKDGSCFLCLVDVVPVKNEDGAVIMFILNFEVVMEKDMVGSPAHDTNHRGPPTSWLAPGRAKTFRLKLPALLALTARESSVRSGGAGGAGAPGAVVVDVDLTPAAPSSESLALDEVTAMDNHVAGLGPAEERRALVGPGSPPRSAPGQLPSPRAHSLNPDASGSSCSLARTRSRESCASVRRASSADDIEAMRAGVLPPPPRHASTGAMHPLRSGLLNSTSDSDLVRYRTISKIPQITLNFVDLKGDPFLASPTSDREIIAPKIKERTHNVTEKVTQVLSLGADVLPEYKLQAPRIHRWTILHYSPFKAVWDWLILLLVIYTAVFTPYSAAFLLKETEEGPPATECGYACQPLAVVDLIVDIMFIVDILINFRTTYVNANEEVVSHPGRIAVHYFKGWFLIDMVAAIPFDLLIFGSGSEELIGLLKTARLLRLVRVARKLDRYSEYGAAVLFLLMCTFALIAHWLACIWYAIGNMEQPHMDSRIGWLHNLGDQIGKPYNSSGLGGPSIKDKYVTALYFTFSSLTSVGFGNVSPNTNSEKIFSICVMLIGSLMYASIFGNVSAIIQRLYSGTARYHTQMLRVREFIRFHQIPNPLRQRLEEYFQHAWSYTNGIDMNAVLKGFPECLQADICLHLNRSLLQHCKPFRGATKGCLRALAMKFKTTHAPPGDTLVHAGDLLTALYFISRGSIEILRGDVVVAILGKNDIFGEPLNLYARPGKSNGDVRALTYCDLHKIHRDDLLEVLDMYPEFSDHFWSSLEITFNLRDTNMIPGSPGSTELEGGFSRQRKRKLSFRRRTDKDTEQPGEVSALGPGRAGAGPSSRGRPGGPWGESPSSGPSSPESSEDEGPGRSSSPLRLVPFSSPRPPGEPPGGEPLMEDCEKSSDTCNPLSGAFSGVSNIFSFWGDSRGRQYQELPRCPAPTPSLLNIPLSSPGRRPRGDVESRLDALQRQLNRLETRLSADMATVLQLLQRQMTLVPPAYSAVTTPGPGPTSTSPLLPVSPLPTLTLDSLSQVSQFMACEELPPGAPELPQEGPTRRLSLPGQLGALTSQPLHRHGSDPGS
row,Structure (SMILES),"hERG current change (%, negative = inhibition) at 10uM"
1,CCOC(=O)c1cnc2c(Cl)cccc2c1NCCN(C)C.Cl,-25.6%
2,CCc1ccc(NC(=O)c2cc(-c3cccs3)on2)cc1,14.4%
3,COc1ccc(CC(=O)NC(C)c2nnc(SCCOc3ccc(OC)cc3)n2C)cc1 (stereo not shown),-11.2%
4,O=C(C1=C[C@@H](C2CCCCC2)C[C@@H](OCc2ccc(CO)cc2)O1)N1CCN(Cc2ccccc2)CC1,-25.4%
5,CC(C)C(NC(=O)c1ccc2c(c1)OCCO2)c1nc2ccccc2[nH]1 (stereo not shown),26.2%
6,Br.Cc1cc(C)nc(/N=C2/NC(=O)CS2)n1,7.59%
7,CCCN(CCC)C(=O)C1CCCN(S(=O)(=O)c2ccc3c(c2)oc(=O)n3C)C1 (stereo not shown),-7.73%
8,COc1ccc(-c2nnc3n2N=C(C)CS3)cc1,3.51%
9,Cc1ccc(CN2CCC(N3CC(C)OC(C)C3)CC2)cc1.Cl (stereo not shown),4.91%
10,CCOC(=O)c1ccc(N=C2S/C(=C\c3cc(C)n(-c4cccnc4)c3C)C(=O)N2C)cc1,0.0252%
11,Cc1nc2cc([N+](=O)[O-])ccc2c(=O)n1-c1ccc(Br)cc1,4.66%
12,O=c1cc(O)nc(SCc2ccc(Cl)cc2)[nH]1,-5.71%
13,CS(=O)(=O)N1CC(C(=O)NN)Oc2ccc(Cl)cc21 (stereo not shown),13.6%
14,CCCCNC(=O)c1ccc(CNc2c(N3CCC(C(=O)OCC)CC3)c(=O)c2=O)cc1,-24.3%
15,O=C(CN1CCN(S(=O)(=O)c2ccc(Cl)cc2)CC1)NC(=O)NC1CCCCC1,-27.7%
16,O=C(NCCc1nnc2ccc(N3CCCC3)nn12)c1ccccc1,-11.8%
17,O=C(NC1CC2CCCC(C1)N2C(=O)Nc1ccccc1F)C1CC1 (stereo not shown),17.7%
18,C[C@H](NC(=O)c1nc[nH]c1C(=O)N1CCc2ccccc2C1)C(=O)OC(C)(C)C,-3.23%
19,Cc1ccccc1NC(=O)N1CCN(S(=O)(=O)c2ccccc2)CC1,8.23%
20,O=C(CSc1nc2ccccc2s1)NCc1ccc2c(c1)OCO2,-8.37%
21,CC1CCN(C(=S)SCc2nc(N)nc(Nc3ccccc3)n2)CC1,-2.72%
22,CCc1nnc(NC(=O)COc2ccc3c(c2)OCO3)s1,26.1%

row,Structure (SMILES),"hERG current change (%, negative = inhibition) at 10uM"
1,COc1ccc(Cl)cc1C(=O)NCCCSc1ccccc1,-2.2%
2,O=C(NCC1CCCN(Cc2cccc(C(F)(F)F)c2)C1)c1ccc(F)cc1 (stereo not shown),-58.2%
3,CN(C)S(=O)(=O)c1cccc(-c2cn3ccccc3n2)c1,-2.91%
4,CCCCCCSc1ccc([C@H]2N[C@@](Cc3ccccc3)(C(=O)OC)[C@H]3C(=O)N(C)C(=O)[C@@H]23)cc1.O=C(O)C(F)(F)F,13.3%
5,O=C(/C=C/c1cc[n+](CC(=O)c2ccc3cccc4c3c2CC4)cc1)c1ccc2cccc3c2c1CC3.[Br-],12.9%
6,Cn1cc(CCC(=O)N2CCCC(Nc3ccc(F)cc3)C2)cn1 (stereo not shown),12.6%
7,CS(=O)(=O)Nc1ccc(C(=O)Nc2ccc(S(=O)(=O)Nc3nccs3)cc2)cc1,12%
8,CCC(=O)c1ccc(OCC(=O)NC2(C#N)CCCCC2)cc1,5.49%
9,COc1cc(CN2CCN(C(=O)c3ccc(-c4ccccc4)cc3)CC2)cc(OC)c1OC.O=C(O)C(=O)O,-54.7%
10,CS(=O)(=O)N1CCN=C1SCc1ccc([N+](=O)[O-])cc1,-38.1%
11,CCC1CN(C(=O)N2CCC(C(=O)NCc3ccccc3OC)CC2)c2cc(C)ccc2O1 (stereo not shown),-26.1%
12,O=C(Nc1nccs1)c1ccc(COc2ccccc2)o1,15.6%
13,CCCOc1ccc(CCc2n[nH]c(=S)n2Cc2ccccc2)cc1,-7.26%
14,CCCS(=O)(=O)N1CCC(C(=O)N2CCc3ccccc3C2)CC1,-3.6%
15,O=C(O)C(Cc1c[nH]c2ccccc12)NS(=O)(=O)c1ccc(Br)cc1 (stereo not shown),8.36%
16,O=C(c1ccc(N2CCCCC2)c([N+](=O)[O-])c1)N(Cc1ccccc1)c1ccccn1,-28%
17,Cc1nnc(N2CCCCC2)c2ccccc12,-5.58%
18,CCOC(=O)N1CCN(Cc2cn3ccccc3n2)CC1.O=C(O)C(=O)O,21.9%
19,CCSc1cnn(-c2ccccc2)c(=O)c1SCC,-8.06%
20,O=C(O)C(=O)O.O=C(c1cccc(F)c1)N1CCN(C2CCCCC2)CC1,-42.4%
21,O=c1cccc2n1CC1CC2CN(Cc2ccc3c(c2)OCO3)C1 (stereo not shown),-16%
22,O=C(CCCCCN1C(=O)CCC1=O)Nc1ccc(Br)cc1F,1.73%

row,Structure (SMILES),"hERG current change (%, negative = inhibition) at 10uM"
1,CC(=O)Nc1ccc(OCC(O)Cn2c3ccccc3c3ccccc32)cc1 (stereo not shown),8.78%
2,CC(C)C(C)NC(=O)CSc1nc2scc(-c3ccco3)c2c(=O)n1-c1ccccc1 (stereo not shown),3.12%
3,CSc1ccc(CN2CCN(C(=O)COc3cccc(C)c3)CC2)cc1,-50.3%
4,O=C(COC(=O)/C=C/C(=O)OCC(=O)Nc1ccccc1F)Nc1ccccc1F,12.9%
5,O=C(Nc1ccc(Cl)c(Cl)c1)c1cccnc1,-2.86%
6,COc1ccc(CCNC(=O)C2CC2)cc1OC,-18.3%
7,CC(=O)c1cccc(NC(=O)NC2CCCCC2)c1,-11.3%
8,O=C(CN1C(=O)S/C(=C/c2ccccn2)C1=O)N1CCOCC1,16.1%
9,Cn1c2ccccc2c(=O)c2c(=O)n(-c3ccc(F)cc3)c(-c3cccs3)nc21,1.35%
10,C=CCNC(=O)c1ccccc1Cl,14.5%
11,O=C(NCC1OCCCN1S(=O)(=O)c1cc(F)ccc1F)C(=O)NC1CCCCCC1 (stereo not shown),4.74%
12,COc1ccc(Cl)cc1C(=O)n1nc(C)cc1C,2.79%
13,Cc1cc(NC(=O)CN(C)C)c([N+](=O)[O-])cc1C,6.66%
14,COc1ccccc1C(=O)Nc1cccc(N(C)S(C)(=O)=O)c1,25%
15,C/C(=N/NC(=O)c1cc(-c2ccccc2)nc2c(Cl)cccc12)c1cccnc1,26.1%
16,Nc1nc(N)c(N=O)c(OCC2CCCCC2)n1,11.4%
17,O=C1CC(Sc2ccc(Cl)cc2)C(=O)N1Cc1ccncc1 (stereo not shown),-19.6%
18,N#Cc1c(NC(=S)NC(=O)c2ccccc2)sc2c1CCC2,7.07%
19,COc1cccc(OCCNc2cc(N3CCCCC3)ccc2[N+](=O)[O-])c1,18.5%
20,COCc1cc(N2CCN(c3ccccc3F)CC2)nc(-c2ccccc2)n1,8.03%
21,COC(=O)c1ccc(/C=N/Nc2nc(N3CCCCC3)nc(N3CCCCC3)n2)cc1,3.51%
22,COc1ccc(C2=Nn3c(nnc3C3CCCCC3)SC2)cc1OC,-16.2%

row,Structure (SMILES),"hERG current change (%, negative = inhibition) at 10uM"
1,Cc1ccc(OCCOCCNC(C)C)c(Br)c1.O=C(O)C(=O)O,-18.3%
2,C=CCNC(=O)c1onc(CSc2ccc(C)c(C)c2)c1C(=O)O,12.3%
3,COc1ccc2c(c1)c1nnc(SCC(=O)NC3CC3)nc1n2C,-6.02%
4,CN1C(=O)/C(=C/c2ccc(OCc3ccc(F)cc3)cc2)NC1=S,23.6%
5,COC(=O)c1ccc(NC(=S)NN2CCOCC2)cc1,-2.64%
6,N#Cc1c(-c2ccccc2)cc2nc3ccccc3n2c1N,10.6%
7,CC(=O)c1ccc(NC(=O)C2CCCN(S(=O)(=O)c3c(C)[nH]c(=O)[nH]c3=O)C2)cc1 (stereo not shown),12.3%
8,CCOC(=O)c1ccc(NC(=O)CCOc2ccc(C)cc2)cc1,10.4%
9,Cc1ccc(-c2c(C(=O)N/N=C/c3ccc4c(c3)OCO4)nnn2-c2nonc2N)cc1,25.3%
10,COC(=O)c1cc(NC(=O)c2ccc([N+](=O)[O-])cc2)c(=O)oc1C,9.29%
11,COc1ccc(/C(C)=N/Nc2nc3ccccc3nc2C)cc1OC,-13.5%
12,C=CCC(CC(O)COCCC)C(=O)NNC(=S)Nc1ccccc1 (stereo not shown),11.4%
13,COc1cc(/C=N/NC(=O)c2ccncc2)ccc1O,9.86%
14,C=C(C)COc1ccc(-c2nc(N)nc(C(F)(F)F)c2-c2ccc(OC)cc2)c(O)c1,21.9%
15,O=C(c1cccc(Cl)c1)N1CCC(C(=O)N2CCN(Cc3ccccc3)CC2)CC1,-56.2%
16,Cc1cc(OCC(=O)NCC(c2cccs2)N2CCOCC2)ccc1C(C)C (stereo not shown),-48.8%
17,CCc1ccccc1NC(=O)CCC(=O)Nc1nnc(C(C)C)s1,23.4%
18,COc1ccc(-c2noc(N3CCC(C(=O)Nc4ccccc4OC)CC3)n2)cc1,-12%
19,CCN1C(=O)C(CC(=O)Nc2ccc(F)cc2)N(Cc2ccco2)C1=S (stereo not shown),-24.2%
20,CCOc1ccc2[nH]c(=O)c(CN(CCc3ccccc3)C(=O)N3CCCC3)cc2c1,-10.1%
21,O=C(Nc1ccc(Br)cc1)C1Cc2ccccc2O/C1=N\O (stereo not shown),11.9%
22,O=C(NCc1ccc(F)cc1)C1CCN(C(=O)NCc2ccccc2)CC1,6.31%
